Experimental data taken from the supplement of paper PMC11876631.
Numbering of substitutions follows the chain as printed. In names and notes the source's numbering stands. ± gives the standard deviation of the averaged measurements. Laboratory Escherichia coli strains with one amino-acid change in an essential protein, pooled on minimal glucose agar with carbenicillin or gentamicin at twice the control MIC (plus kanamycin and chloramphenicol for the plasmids), 48 h. Fold change of barcode share against drug-free plates; higher = less susceptible. Active = above 20 in both replicates (the paper's putatively resistant). '<' = one read or none on drug, '>' = one read or none on a drug-free plate. Shares are relative, so most strains fall below 1 when a few take over. Listed are strains with at least 15 reads on both drug-free plates, and hits; most hits rest on fewer reference reads. Replicate rank correlation about 0.5. Edits are read from barcodes.

B1: prmC L235A (protein)
chain: MEYQHWLREAISQLQASESPRRDAEILLEHVTGRGRTFILAFGETQLTDEQCQQLDALLTRRRDGEPIAHLTGVREFWSLPLFVSPATLIPRPDTECLVEQALARLPEQPCRILDLGTGTGAIALALASERPDCEIIAVDRMPDAVSLAQRNAQHLAIKNIHILQSDWFSALAGQQFAMIVSNPPYIDEQDPHLQQGDVRFEPLTALVAADSGMADIVHIIEQSRNALVSGGFLALEHGWQQGEAVRQAFILAGYHDVETCRDYGDNERVTLGRYYQ
B2: prmC L235W (protein)
chain: B1 chain with A235W
B3: prmC L235Q (protein)
chain: B1 chain with A235Q
B4: prmC L98A (protein)
chain: B1 chain with L98A, A235L
B5: prmC L98W (protein)
chain: B1 chain with L98W, A235L
B6: prmC L98Q (protein)
chain: B1 chain with L98Q, A235L
B7: prmC L98P (protein)
chain: B1 chain with L98P, A235L
B8: proA I31W (protein)
chain: MLEQMGIAAKQASYKLAQLSSREKNRVLEKWADELEAQSEIILNANAQDVADARANGLSEAMLDRLALTPARLKGIADDVRQVCNLADPVGQVIDGGVLDSGLRLERRRVPLGVIGVIYEARPNVTVDVASLCLKTGNAVILRGGKETCRTNAATVAVIQDALKSCGLPAGAVQAIDNPDRALVSEMLRMDKYIDMLIPRGGAGLHKLCREQSTIPVITGGIGVCHIYVDESVEIAEALKVIVNAKTQRPSTCNTVETLLVNKNIADSFLPALSKQMAESGVTLHADAAALAQLQAGPAKVVAVKAEEYDDEFLSLDLNVKIVSDLDDAIAHIREHGTQHSDAILTRDMRNAQRFVNEVDSSAVYVNASTRFTDGGQFGLGAEVAVSTQKLHARGPMGLEALTTYKWIGIGDYTIRA
B9: proA I159A (protein)
chain: B8 chain with W31I, I159A
B10: proA I159W (protein)
chain: B8 chain with W31I, I159W
B11: proA I159Q (protein)
chain: B8 chain with W31I, I159Q
B12: proA L273A (protein)
chain: B8 chain with W31I, L273A
B13: proA L273W (protein)
chain: B8 chain with W31I, L273W

Target: Escherichia coli (laboratory strain)
Test: barcode share on antibiotic plates over drug-free plates; higher = less susceptible
Description: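 A pool of E. coli strains, each edited to carry one amino-acid change in an essential protein, was grown for 48 h on minimal glucose agar with or without antibiotic; strain barcodes were sequenced; mean of two replicates.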

[1] = antibiotic: carbenicillin, 2× MIC (3.1 µg/mL)
[2] = antibiotic: gentamicin, 2× MIC (MIC 0.45 µg/mL)

Protein | fold change of barcode share [1] | fold change of barcode share [2]
B1 | 0.262 ± 0.043 | < 0.00423
B2 | 0.964 ± 0.72 | < 0.00784
B3 | 0.667 ± 0.73 | < 0.015
B4 | 0.317 ± 0.15 | 0.00286 ± 0.0025
B5 | 0.314 ± 0.022 | 0.00754 ± 0.0024
B6 | 0.276 ± 0.01 | 0.0063 ± 0.005
B7 | 0.399 ± 0.0091 | 0.00728 ± 0.00022
B8 | 0.309 ± 0.15 | 0.012 ± 0.00099
B9 | 0.591 ± 0.1 | 0.00801 ± 0.0002
B10 | 0.354 ± 0.035 | 0.00499 ± 0.00071
B11 | 0.657 ± 0.2 | 0.00753 ± 0.0056
B12 | 0.448 ± 0.06 | 0.00405 ± 0.0022
B13 | 0.397 ± 0.012 | 0.00738 ± 0.0024
